Whole data set: some 81,000 sequences, median “one-hybrid fitness for binding parS DNA” near -0.17, cut for the highest 2% near 0.51. Some of the results follow.
B1: Caulobacter ParB omega fusion; a variant is named by its letters at X, in order, B8GW30 (parent)
chain: MESVVVGEPGMSEGRRGLGRGLSALLGEVDAAPAQAPGEQLGGSREAPIEILQRNPDQPRRTFREEDLEDLSNSIREKGVLQPILVRPSPDTAGEYQIVAGERAWRAAQRAGLKTVPIMVRELDDLAVLEIGIIENVQRADLNVLEEALSYKVLMEKFERTQENIAQTIGKSXSHVANXMRLLXLPDEVQSYLVSGELTAXHARAIAAAADPVALAKQIIEGGLSVRETEALARKAPNLSAGKSKGGRPPRVKDTDTQALESDLSSVLGLDVSIDHRGSTGTLTITYATLEQLDDLCNRLTRGI

Variants of: B1
Test: one-hybrid fitness for binding parS DNA (scaled: cognate 1, non-cognate 0); higher = stronger binding
Settings: with parS DNA site
How it was run: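 The reporter was HIS3, with the binding site 19 bp from the promoter, in E. coli USO used for bacterial one-hybrid selection of Caulobacter ParB libraries with four specificity codons randomised. Growth was on M9 lacking histidine, with 0.1 mM IPTG and 5 mM 3-AT, for 48 hours at 37°C. Illumina sequencing covered plasmids before and after selection; three replicate libraries were pooled and variants with under 10 reads dropped. A fitness score is the log change in variant-to-wild-type read ratio, rescaled to the cognate and non-cognate references.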

one-hybrid fitness for binding parS DNA, 0.446:
RRHY

one-hybrid fitness for binding parS DNA, ≤ 0.2:
ADFR
NAIG
MVHC
GADI
DTAS
HLSC
SATG
NAWA
LDDT
GVTY
NGRH
NRYG
ERKL
AIGA
ERLT
TWAI
SGDS
LQRR
TSIF
GHPG
SKQC
DDPR
LSVV
YLHD
EKFT
SIFD
PCRS
HPMS
CSLL
VTIM
FRDG
SMLK
HTVC
QASQ
PMER
ASGE
CKGS
DTKM
KTPI
DALD
PHRR
HATS
KDCL
IRGR
YEHS
ASGT
PMGG
AAFP
HNSE
GFNP
YMIS
LMGT
HKIE
EACL
FGMF
RSGV
KFNG
CSIV
SLYQ
AQMR
YYHR
YTTT
WDVG
SVHE
PICL
CIGT
IQNS
CQRC
NAYC
LRAL
AVQD
PLNC
EVYC
LCNR
EKVT
RPES
GNYQ
VCRE
MQMS
GNWP

one-hybrid fitness for binding parS DNA, 0.865:
RHAT

one-hybrid fitness for binding parS DNA, 0.968:
RSHC

one-hybrid fitness for binding parS DNA, 0.276:
YITY

Source: a collection of fitness landscapes (doi:10.1016/j.celrep.2020.107928)
